# Measurements taken from publication PMC9911399, “Two distinct binding modes provide the RNA-binding protein RbFox with extraordinary sequence specificity”.
# Numbering of substitutions follows the chain as printed; changes in the protein carry UniProt numbers. This is one part of the list.
# T1: RBFOX1 RRM RbFoxmut (Fox-RRM*) (Homo sapiens, UniProt Q9NWB1 109-208, R118D;E147R;N151S;E152T)
# T1 sequence: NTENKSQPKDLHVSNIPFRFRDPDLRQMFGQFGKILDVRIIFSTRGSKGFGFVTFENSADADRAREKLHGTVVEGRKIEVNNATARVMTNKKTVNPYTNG
# B1: GGGUGAG (DNA:RNA)
# RNA: GGGAGACCGGAAUUCAGAUUGUCCGGGUGAGUUAAAUCCCGUCGUAGCCACCA
# DNA 1: CAATCTGAATTCCGGTCTCCC
# DNA 2: TGGTGGCTACGACGGGATT
# B2: GGGGAGC (DNA:RNA)
# RNA: B1 RNA with U28G, G29A, A30G, G31C
# DNA 1: CAATCTGAATTCCGGTCTCCC
# DNA 2: TGGTGGCTACGACGGGATT
# B3: CUGUUGG (DNA:RNA)
# RNA: B1 RNA with G25C, G26U, G29U, A30G
# DNA 1: CAATCTGAATTCCGGTCTCCC
# DNA 2: TGGTGGCTACGACGGGATT
# B4: GUAGCAA (DNA:RNA)
# RNA: B1 RNA with G26U, G27A, U28G, G29C, G31A
# DNA 1: CAATCTGAATTCCGGTCTCCC
# DNA 2: TGGTGGCTACGACGGGATT
# B5: GAAGCCG (DNA:RNA)
# RNA: B1 RNA with G26A, G27A, U28G, G29C, A30C
# DNA 1: CAATCTGAATTCCGGTCTCCC
# DNA 2: TGGTGGCTACGACGGGATT
# B6: GAUUGAU (DNA:RNA)
# RNA: B1 RNA with G26A, G27U, G31U
# DNA 1: CAATCTGAATTCCGGTCTCCC
# DNA 2: TGGTGGCTACGACGGGATT
# B7: UACGCGA (DNA:RNA)
# RNA: GGGAGACCGGAAUUCAGAUUGUCCUACGCGAUUAAAUCCCGUCGUAGCCACCA
# DNA 1: CAATCTGAATTCCGGTCTCCC
# DNA 2: TGGTGGCTACGACGGGATT
# B8: AGGAUCC (DNA:RNA)
# RNA: B1 RNA with G25A, U28A, G29U, A30C, G31C
# DNA 1: CAATCTGAATTCCGGTCTCCC
# DNA 2: TGGTGGCTACGACGGGATT
# B9: UAGUUCU (DNA:RNA)
# RNA: B1 RNA with G25U, G26A, G29U, A30C, G31U
# DNA 1: CAATCTGAATTCCGGTCTCCC
# DNA 2: TGGTGGCTACGACGGGATT
# B10: GGACCGU (DNA:RNA)
# RNA: B1 RNA with G27A, U28C, G29C, A30G, G31U
# DNA 1: CAATCTGAATTCCGGTCTCCC
# DNA 2: TGGTGGCTACGACGGGATT
# B11: GCAAGAA (DNA:RNA)
# RNA: B1 RNA with G26C, G27A, U28A, G31A
# DNA 1: CAATCTGAATTCCGGTCTCCC
# DNA 2: TGGTGGCTACGACGGGATT
# B12: AUGUAGG (DNA:RNA)
# RNA: B1 RNA with G25A, G26U, G29A, A30G
# DNA 1: CAATCTGAATTCCGGTCTCCC
# DNA 2: TGGTGGCTACGACGGGATT
# B13: GACGGAU (DNA:RNA)
# RNA: B1 RNA with G26A, G27C, U28G, G31U
# DNA 1: CAATCTGAATTCCGGTCTCCC
# DNA 2: TGGTGGCTACGACGGGATT
# B14: GGGUUGC (DNA:RNA)
# RNA: B1 RNA with G29U, A30G, G31C
# DNA 1: CAATCTGAATTCCGGTCTCCC
# DNA 2: TGGTGGCTACGACGGGATT
# B15: GUCCCAG (DNA:RNA)
# RNA: B1 RNA with G26U, G27C, U28C, G29C
# DNA 1: CAATCTGAATTCCGGTCTCCC
# DNA 2: TGGTGGCTACGACGGGATT
# B16: GGGUUGA (DNA:RNA)
# RNA: B1 RNA with G29U, A30G, G31A
# DNA 1: CAATCTGAATTCCGGTCTCCC
# DNA 2: TGGTGGCTACGACGGGATT
# B17: UAGUUAC (DNA:RNA)
# RNA: B1 RNA with G25U, G26A, G29U, G31C
# DNA 1: CAATCTGAATTCCGGTCTCCC
# DNA 2: TGGTGGCTACGACGGGATT
# B18: AAAGUGC (DNA:RNA)
# RNA: B7 RNA with U25A, C27A, C29U, A31C
# DNA 1: CAATCTGAATTCCGGTCTCCC
# DNA 2: TGGTGGCTACGACGGGATT
# B19: GGAAAAA (DNA:RNA)
# RNA: B1 RNA with G27A, U28A, G29A, G31A
# DNA 1: CAATCTGAATTCCGGTCTCCC
# DNA 2: TGGTGGCTACGACGGGATT
# B20: AUAGUCC (DNA:RNA)
# RNA: B7 RNA with U25A, A26U, C27A, C29U, G30C, A31C
# DNA 1: CAATCTGAATTCCGGTCTCCC
# DNA 2: TGGTGGCTACGACGGGATT
# B21: GACUUAA (DNA:RNA)
# RNA: B1 RNA with G26A, G27C, G29U, G31A
# DNA 1: CAATCTGAATTCCGGTCTCCC
# DNA 2: TGGTGGCTACGACGGGATT
# B22: UUCAAUG (DNA:RNA)
# RNA: B7 RNA with A26U, G28A, C29A, G30U, A31G
# DNA 1: CAATCTGAATTCCGGTCTCCC
# DNA 2: TGGTGGCTACGACGGGATT
# B23: ACCCAUU (DNA:RNA)
# RNA: B7 RNA with U25A, A26C, G28C, C29A, G30U, A31U
# DNA 1: CAATCTGAATTCCGGTCTCCC
# DNA 2: TGGTGGCTACGACGGGATT
# B24: UGCGUAA (DNA:RNA)
# RNA: B7 RNA with A26G, C29U, G30A
# DNA 1: CAATCTGAATTCCGGTCTCCC
# DNA 2: TGGTGGCTACGACGGGATT
# B25: UACAUCC (DNA:RNA)
# RNA: B7 RNA with G28A, C29U, G30C, A31C
# DNA 1: CAATCTGAATTCCGGTCTCCC
# DNA 2: TGGTGGCTACGACGGGATT
# B26: UCUUUUA (DNA:RNA)
# RNA: B7 RNA with A26C, C27U, G28U, C29U, G30U
# DNA 1: CAATCTGAATTCCGGTCTCCC
# DNA 2: TGGTGGCTACGACGGGATT
# B27: CACUUAC (DNA:RNA)
# RNA: B1 RNA with G25C, G26A, G27C, G29U, G31C
# DNA 1: CAATCTGAATTCCGGTCTCCC
# DNA 2: TGGTGGCTACGACGGGATT
# B28: UGCUCUA (DNA:RNA)
# RNA: B7 RNA with A26G, G28U, G30U
# DNA 1: CAATCTGAATTCCGGTCTCCC
# DNA 2: TGGTGGCTACGACGGGATT
# B29: GCUUUGA (DNA:RNA)
# RNA: B1 RNA with G26C, G27U, G29U, A30G, G31A
# DNA 1: CAATCTGAATTCCGGTCTCCC
# DNA 2: TGGTGGCTACGACGGGATT
# B30: UCUUAGA (DNA:RNA)
# RNA: B7 RNA with A26C, C27U, G28U, C29A
# DNA 1: CAATCTGAATTCCGGTCTCCC
# DNA 2: TGGTGGCTACGACGGGATT
# B31: UAGUAAG (DNA:RNA)
# RNA: B1 RNA with G25U, G26A, G29A
# DNA 1: CAATCTGAATTCCGGTCTCCC
# DNA 2: TGGTGGCTACGACGGGATT
# Target: T1, RBFOX1 RRM RbFoxmut (Fox-RRM*)
# Assay: EMSA; HiTS-Eq, 1 nM pool, 10 min; buffer printed only for the single-RNA assays: 10 mM Tris pH 7.5, 150 mM NaCl, 3.4 mM EDTA, 0.001% NP-40, 30 C
# Details: tags: His6 N-terminal (pET28a); label: 5' 32P
# Procedure, shortened: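 Relative association constants, normalised to the cognate motif, were derived by comparing read counts of each RNA species with those of the control reaction. The RNA sequenced was the free fraction, separated by 8% native PAGE after a 10 min equilibration in 50 µL of 1 nM 5′-radiolabelled RNA (7 randomized nucleotides) with increasing concentrations of purified wild-type or mutant RbFox RRM.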
row,Binder,binding signal
1,B1,0.147 KA relative to UGCAUGU
2,B2,0.104 KA relative to UGCAUGU
3,B3,0.0974 KA relative to UGCAUGU
4,B4,0.0808 KA relative to UGCAUGU
5,B5,0.0597 KA relative to UGCAUGU
6,B6,0.13 KA relative to UGCAUGU
7,B7,0.0727 KA relative to UGCAUGU
8,B8,0.142 KA relative to UGCAUGU
9,B9,0.0937 KA relative to UGCAUGU
10,B10,0.164 KA relative to UGCAUGU
11,B11,0.0932 KA relative to UGCAUGU
12,B12,0.128 KA relative to UGCAUGU
13,B13,0.0889 KA relative to UGCAUGU
14,B14,0.256 KA relative to UGCAUGU
15,B15,0.0902 KA relative to UGCAUGU
16,B16,0.356 KA relative to UGCAUGU

row,Binder,binding signal
1,B17,0.101 KA relative to UGCAUGU
2,B18,0.102 KA relative to UGCAUGU
3,B19,0.0507 KA relative to UGCAUGU
4,B20,0.0899 KA relative to UGCAUGU
5,B21,0.092 KA relative to UGCAUGU
6,B22,0.0878 KA relative to UGCAUGU
7,B23,0.0896 KA relative to UGCAUGU
8,B24,0.118 KA relative to UGCAUGU
9,B25,0.0661 KA relative to UGCAUGU
10,B26,0.119 KA relative to UGCAUGU
11,B27,0.1 KA relative to UGCAUGU
12,B28,0.119 KA relative to UGCAUGU
13,B29,0.122 KA relative to UGCAUGU
14,B30,0.109 KA relative to UGCAUGU
15,B31,0.118 KA relative to UGCAUGU
